Assay [1] deals with HSkMC (human skeletal muscle cells). The experiment in a line: cytotoxicity call (relative viability < 0.9). The following applies: 10 µM.
Assay [2] relates to S. aureus RN4220. Nature of the assay: growth inhibition call (relative growth <= 0.2). The following applies: 50 µM.

The other results are listed elsewhere or left out.

The results in this text go back to the antibiotic and cytotoxicity screens of Wong et al. (2023).

On to `CCS(=O)(=O)Nc1ccc2c(c1)C(=O)N(C)[C@@H]1CC[C@@H](CC(=O)N[C@H]3CCN(Cc4ccccc4)C3)O[C@@H]1CO2`, for which the cytotoxicity call in assay [1] is “inactive”. For the same compound, the growth inhibition call in assay [2] was “inactive”.
On to `C[C@@H]1CN([C@@H](C)CO)C(=O)Cc2cc(NC(=O)NC3CCCCC3)ccc2O[C@@H]1CN(C)Cc1ccc(-c2ccccc2)cc1`, for which the cytotoxicity call in assay [1] is “inactive”. Further, the growth inhibition call in assay [2] is “inactive”.
Consider `CO[C@H]1CN(C)C(=O)c2cc(NS(C)(=O)=O)ccc2OC[C@H](C)N(C(=O)C2CCCCC2)C[C@@H]1C`, for which the cytotoxicity call in assay [1] was “inactive”. Further, the growth inhibition call in assay [2] was “inactive”.
